From article PMC8696166
Where two headings read alike, the source gives them in different places. Results are given in words; binding and its absence hold for the method and conditions named. Some entries that bind do so weakly or less than the wild type. For part of these data: Tags and fused reporters may be left off the sequences shown.

Sequences of proteins named here, by UniProt entry; tags and fusion partners are left off.
UniProt P0A3F4: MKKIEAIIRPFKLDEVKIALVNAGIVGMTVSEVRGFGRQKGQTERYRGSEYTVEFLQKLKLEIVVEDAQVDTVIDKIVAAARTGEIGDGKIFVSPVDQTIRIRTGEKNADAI

T1: NtcA, BACTH fusions (Synechococcus elongatus PCC7942) (UniProt P29283)
T1 sequence: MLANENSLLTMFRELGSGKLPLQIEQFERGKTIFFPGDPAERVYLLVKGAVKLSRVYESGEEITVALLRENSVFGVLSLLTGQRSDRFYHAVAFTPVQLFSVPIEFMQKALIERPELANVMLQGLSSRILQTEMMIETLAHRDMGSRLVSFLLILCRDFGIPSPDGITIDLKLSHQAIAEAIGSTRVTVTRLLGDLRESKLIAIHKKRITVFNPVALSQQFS


Key:
Experiment in all cases: two-hybrid; bacterial two-hybrid (BACTH, reconstitution of B. pertussis adenylate cyclase from T18 and T25) in E. coli BTH101; plate assays on MacConkey-lactose and M63-maltose + X-gal, 0.5 mM IPTG, 30°C; signals classed by eye into five levels
[1] = target: PII (GlnB), BACTH fusions (Synechococcus elongatus PCC7942) (UniProt P0A3F4)
[2] = target: T1, NtcA, BACTH fusions (Synechococcus elongatus PCC7942)
[3] = target: T1, NtcA, BACTH fusions (Synechococcus elongatus PCC7942); remark: listed apart in the source
[4] = substrate: PII (GlnB), BACTH fusions (Synechococcus elongatus PCC7942) (UniProt P0A3F4); remark: listed apart in the source

Row | Molecule | binding [1] | binding [2] | binding [3] | binding [4]
1 | PipX 1-54, BACTH fusions (domain or fragment, UniProt Q7X386 1-54) MASENYLNHPTFGLLYQICSFGDSKELFATLYAQRLFFLVAFDARGTRFEPIGR | – | – | no binding | no binding
2 | NtcA, BACTH fusions (protein, UniProt P29283 1-222) MLANENSLLTMFRELGSGKLPLQIEQFERGKTIFFPGDPAERVYLLVKGAVKLSRVYESGEEITVALLRENSVFGVLSLLTGQRSDRFYHAVAFTPVQLFSVPIEFMQKALIERPELANVMLQGLSSRILQTEMMIETLAHRDMGSRLVSFLLILCRDFGIPSPDGITIDLKLSHQAIAEAIGSTRVTVTRLLGDLRESKLIAIHKKRITVFNPVALSQQFS | – | – | binds | –
3 | PipX (PII interacting protein X), BACTH fusions (protein, UniProt Q7X386 1-89) MASENYLNHPTFGLLYQICSFGDSKELFATLYAQRLFFLVAFDARGTRFEPIGRNEARMLVDNRLRQLRRDASLQEYNQLQQVFKQTFL | – | – | binds | binds

Continued, values first:

Row | binding [1] | binding [2] | binding [3] | binding [4] | Molecule
4 | binds | no binding | – | – | PII (GlnB), BACTH fusions (from UniProt P0A3F4 1-112)
5 | – | – | binds | binds | PipX 1-70, BACTH fusions (domain or fragment, UniProt Q7X386 1-70) MASENYLNHPTFGLLYQICSFGDSKELFATLYAQRLFFLVAFDARGTRFEPIGRNEARMLVDNRLRQLRR
